The list shows a part of the results. These are noisy estimates, calculated here from bound and input reads.
molecular target: T1, Pho4 (S. cerevisiae) (UniProt P07270); assay: relative binding free energy (BET-seq); higher = weaker binding; conditions: reference: library average
T1 sequence: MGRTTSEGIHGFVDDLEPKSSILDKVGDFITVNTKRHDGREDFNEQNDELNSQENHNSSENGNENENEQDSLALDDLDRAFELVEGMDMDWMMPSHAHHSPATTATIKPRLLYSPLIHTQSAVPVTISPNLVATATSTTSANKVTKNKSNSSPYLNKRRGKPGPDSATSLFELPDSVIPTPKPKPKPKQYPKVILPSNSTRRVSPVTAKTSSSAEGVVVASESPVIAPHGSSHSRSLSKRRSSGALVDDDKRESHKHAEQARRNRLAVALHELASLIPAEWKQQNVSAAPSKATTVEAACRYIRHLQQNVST

| Sequence | relative binding free energy |
| --- | --- |
| GTGTTCACGTGATGGG | 0.39 kcal/mol |
| GGAGGCACGTGGTCAG | -0.11 kcal/mol |
| TAAAACACGTGATTGG | 0.15 kcal/mol |
| TTTTACACGTGTTCGC | 0.11 kcal/mol |
| AACTTCACGTGGTGTA | 0.36 kcal/mol |
| TTTGTCACGTGACGTA | 0.11 kcal/mol |
| GGTTACACGTGGTAAA | 0.04 kcal/mol |
| TTTTACACGTGGTGGG | 0.15 kcal/mol |
| GTCTACACGTGGAGTG | 0.05 kcal/mol |
| GTAGGCACGTGGCTGG | -0.09 kcal/mol |
| TCGAGCACGTGGTTGT | -0.07 kcal/mol |
| TTCTTCACGTGCTTGG | 0.16 kcal/mol |
| AATGTCACGTGTTAGC | 0.06 kcal/mol |
| ACTTGCACGTGTGATA | 0.22 kcal/mol |
| TCTATCACGTGAGTTT | 0.17 kcal/mol |
| GTATACACGTGTAAGT | 0.04 kcal/mol |
| CGTTTCACGTGTTTGC | 0.35 kcal/mol |
| AGTGTCACGTGTGAAG | 0.12 kcal/mol |
| TTGTCCACGTGGATGT | 0.07 kcal/mol |
| TGACGCACGTGGAATG | 0.06 kcal/mol |
| TGTGACACGTGGGACT | -0.07 kcal/mol |
| TAATGCACGTGTTTCG | 0.03 kcal/mol |
| GTTTTCACGTGTGATT | 0.43 kcal/mol |
| TCAGACACGTGTGTTT | 0.04 kcal/mol |
| TTAGGCACGTGCTATA | -0.25 kcal/mol |

| Sequence | relative binding free energy |
| --- | --- |
| TATTTCACGTGTAATA | 0.41 kcal/mol |
| AGAAGCACGTGATGGT | 0.07 kcal/mol |
| AAATACACGTGTGGTT | 0.13 kcal/mol |
| GTTTTCACGTGTAAAG | 0.29 kcal/mol |
| TAATGCACGTGTAGTA | 0.21 kcal/mol |
| TTGATCACGTGGACTA | 0.2 kcal/mol |
| GTATGCACGTGGGAAA | 0.05 kcal/mol |
| GATGTCACGTGAGAGT | 0.32 kcal/mol |
| TCGATCACGTGTTGAT | 0.12 kcal/mol |
| TAGCTCACGTGATTTT | 0.3 kcal/mol |
| GGTTGCACGTGGCGAG | -0.11 kcal/mol |
| GTTTCCACGTGATGGT | 0.28 kcal/mol |
| AGGCTCACGTGTTGGA | 0.25 kcal/mol |
| AATAGCACGTGAAAGG | 0.24 kcal/mol |
| TCGCGCACGTGTATGG | -0.05 kcal/mol |
| TAGTTCACGTGCGGCA | 0.36 kcal/mol |
| AGTGACACGTGTAATG | 0.05 kcal/mol |
| CGATGCACGTGTGAGT | -0.01 kcal/mol |
| GATAGCACGTGGATGG | 0.11 kcal/mol |
| AATTTCACGTGTGCAG | 0.17 kcal/mol |
| GGCCACACGTGAGGGG | 0.19 kcal/mol |
| GTGCCCACGTGTGAGG | 0.05 kcal/mol |
| TTTGCCACGTGCGCGG | -0.19 kcal/mol |
| TGTATCACGTGTGTTA | 0.18 kcal/mol |
| ATCGTCACGTGGGATA | 0 kcal/mol |

| Sequence | relative binding free energy |
| --- | --- |
| GTAAGCACGTGTGTAT | -0.1 kcal/mol |
| TCAGTCACGTGCAGGT | 0.19 kcal/mol |
| TGAGACACGTGATGAG | 0.18 kcal/mol |
| TTAAACACGTGGGGGT | -0.1 kcal/mol |
| GTTGGCACGTGGTTCA | -0.23 kcal/mol |
| CGGATCACGTGTGAAG | 0.26 kcal/mol |
| GCATTCACGTGCGTGG | 0.35 kcal/mol |
| CGGTCCACGTGTGCGG | -0.01 kcal/mol |
| TACTACACGTGTTGGT | -0.01 kcal/mol |
| CCGAGCACGTGGGGGG | -0.32 kcal/mol |
| GTTAGCACGTGAGGCT | 0.26 kcal/mol |
| GTTGGCACGTGCGGTA | -0.12 kcal/mol |
| TGGGGCACGTGACGTA | 0.01 kcal/mol |
| AGAAGCACGTGGGTGG | -0.17 kcal/mol |
| GAAGGCACGTGTGAAG | -0.04 kcal/mol |
| GGTTCCACGTGTTAGT | 0.14 kcal/mol |
| GGGAACACGTGTAGGA | 0.02 kcal/mol |
| TTGTGCACGTGGAAGT | 0.09 kcal/mol |
| GGCAGCACGTGCTTGT | -0.02 kcal/mol |
| AGGTTCACGTGATTCG | 0.33 kcal/mol |
| TCATACACGTGGTGTG | 0.04 kcal/mol |
| AGGTGCACGTGCAGGG | -0.02 kcal/mol |
| AAGCTCACGTGTTGTG | 0.1 kcal/mol |
| TTTCACACGTGCTGGT | 0.15 kcal/mol |
| CGGCTCACGTGTTGTG | 0.35 kcal/mol |

| Sequence | relative binding free energy |
| --- | --- |
| TGATGCACGTGCGTTT | -0.14 kcal/mol |
| GTTGTCACGTGTGGTT | 0.22 kcal/mol |
| ACGGGCACGTGGTGGC | -0.1 kcal/mol |
| GGAGTCACGTGATTCG | 0.29 kcal/mol |
| CAGGGCACGTGATGTA | -0.05 kcal/mol |
| AGGTGCACGTGGTGCT | -0.08 kcal/mol |
| TGATTCACGTGAACGG | 0.39 kcal/mol |
| CCTGGCACGTGTGTTG | -0.11 kcal/mol |
| GTAATCACGTGGGCGG | 0 kcal/mol |
| TTTGACACGTGCGTAG | -0.13 kcal/mol |
| CGTGTCACGTGTGGTC | 0.07 kcal/mol |
| AGGTCCACGTGGGGTT | -0.15 kcal/mol |
| GGGGACACGTGATGTG | 0.25 kcal/mol |
| CTGGTCACGTGTGTTA | 0.07 kcal/mol |
| CTTTTCACGTGGGAGT | 0.23 kcal/mol |
| CTCTGCACGTGGGTAA | -0.04 kcal/mol |
| GTTACCACGTGAGTGT | 0.22 kcal/mol |
| ATAAGCACGTGAGGTA | 0.07 kcal/mol |
| TGCGTCACGTGTCTTT | 0.05 kcal/mol |
| GTATGCACGTGGGGAT | -0.07 kcal/mol |
| GTTTTCACGTGGCGGT | 0.31 kcal/mol |
| ATGCGCACGTGCTGGG | -0.16 kcal/mol |
| AATTGCACGTGAGGCT | 0.05 kcal/mol |
| GTGTGCACGTGAGATC | 0.18 kcal/mol |
| TTCATCACGTGACGGG | 0.25 kcal/mol |

| Sequence | relative binding free energy |
| --- | --- |
| GAAGGCACGTGAGGCG | 0.14 kcal/mol |
| AGTATCACGTGGATGA | 0 kcal/mol |
| TGATCCACGTGGGAGT | -0.07 kcal/mol |
| CAGTGCACGTGAAAGG | 0.22 kcal/mol |
| TTTAGCACGTGGTCAT | -0.18 kcal/mol |
| TAATTCACGTGGAATG | 0.33 kcal/mol |
| TGGTCCACGTGATGGA | 0.17 kcal/mol |
| GGGTGCACGTGAGGAC | 0.17 kcal/mol |
| TTTGGCACGTGGCGTC | -0.38 kcal/mol |
| GTGGTCACGTGCGCTT | 0.06 kcal/mol |
| GCTACCACGTGGGGGT | -0.11 kcal/mol |
| TCTTACACGTGAGGTG | 0.31 kcal/mol |
| TAGGTCACGTGACCGG | 0.25 kcal/mol |
| AGGGCCACGTGTTTTT | 0.04 kcal/mol |
| TGGGTCACGTGGGGGA | 0.01 kcal/mol |
| AGTGTCACGTGGGCGT | -0.11 kcal/mol |
| GGATACACGTGGTGGC | 0.06 kcal/mol |
| GATTGCACGTGAAATT | 0.34 kcal/mol |
| TCATTCACGTGTTATT | 0.23 kcal/mol |
| TCTAGCACGTGGGTTG | -0.15 kcal/mol |
| TATATCACGTGTCCGT | 0.29 kcal/mol |
| ATGAGCACGTGTAGTG | -0.05 kcal/mol |
| AGATGCACGTGGGAGC | -0.05 kcal/mol |
| TGGAACACGTGGAGGA | 0.2 kcal/mol |
| TTGGGCACGTGGGTGT | -0.1 kcal/mol |

| Sequence | relative binding free energy |
| --- | --- |
| GGGTGCACGTGATAGC | 0.23 kcal/mol |
| TAGTACACGTGGCATG | -0.05 kcal/mol |
| GTTATCACGTGTGGGG | 0.23 kcal/mol |
| TGTCGCACGTGGGTCG | -0.18 kcal/mol |
| ATGGTCACGTGGTTGC | 0.02 kcal/mol |
| GTTGGCACGTGATGAT | 0.09 kcal/mol |
| TGGTTCACGTGCGCTG | 0.25 kcal/mol |
| GAATTCACGTGTTTGG | 0.37 kcal/mol |
| AGTTTCACGTGACTAT | 0.31 kcal/mol |
| TTAGTCACGTGGAGCG | 0.13 kcal/mol |
| TAATGCACGTGTCTTG | -0.02 kcal/mol |
| TCGCGCACGTGGTTTA | -0.1 kcal/mol |
| GGGGTCACGTGAAGTA | 0.41 kcal/mol |
| CGATGCACGTGCGGGG | -0.24 kcal/mol |
| CGTTACACGTGGGTAG | -0.12 kcal/mol |
| CCATGCACGTGGGGTG | -0.23 kcal/mol |
| TCAGTCACGTGGTTGC | 0.1 kcal/mol |
| ATGGCCACGTGTAGTT | 0 kcal/mol |
| AGTAACACGTGTTTAA | 0.08 kcal/mol |
| ACAGACACGTGGGGTG | -0.09 kcal/mol |
| TTCAGCACGTGGAGGC | 0.04 kcal/mol |

Reference: the BET-seq Pho4 binding data (Le et al. 2018)
